Laboratory results: US8969542B2, “HPV polyepitope constructs and uses thereof” (priority 2007, dated 2015)
At least one peptide structure holds a part that was inferred or is arguable (an end, a ring closure or a residue). Where no end group is shown, it is not given here.

How the values were obtained:
[1] = test system: CD8+ spleen cells of HLA transgenic mice (HLA-A01/Kb, F1 HLA-A02/KbxBalb/c, HLA-A11/Kb, HLA-A24/Kb); test: Immunogenicity after peptide pool/IFA immunization, direct ex vivo IFNγ ELISPOT; type: in vivo, mouse; settings: for Delta SFC/10^6 cells: Peptide Pool; for Peptide Pool SFC/10^6 cells Delta: immunization with pool of peptides emulsified in IFA, HLA transgenic mice (HLA-A01/A02/A11/A24), CD8+ cells restimulated with WT peptide 10 μg/mL, IFNγ ELISPOT
Method: CTL binding epitopes were evaluated for their immunogenicity in different HLA transgenic mice. To this, a single immunization with CTL peptide pools together with a common HTL epitope emulsified in IFA was performed and up to 14 days later, CD8+ spleen cells were isolated and evaluated for epitope specificity using a direct ex vivo IFNγ ELISPOT assay.
Peptides were dissolved in DMSO at a concentration of 10 mg/mL. For each of the 4 DNA constructs, the corresponding HLA-restricted peptides were pooled per HLA type (5 to 7 CTL peptides/pool). A known HTL peptide ([…]) was added and the peptide pools were diluted in PBS to the required peptide concentration (i.e. 25 μg of each CTL peptide and 120 μg HTL peptide in 50 μl). After adding an equal volume of IFA (Pierce, lot DG56079), the mixture was emulsified by forcing it through a small orifice. Mice were immunized subcutaneously at the base of the tail with 50 μl peptide/IFA mixture.
As negative control for the peptide-immunized mice, 18 mice (in total) were injected with a PBS/IFA mixture.
(§1) Mice were euthanized and spleen cells (SPC) were isolated 13 days after immunization. […] Spleen cells of DNA- and peptide-immunized HLA-A11/Kb mice were analyzed individually. SPC of all negative control mice were pooled per 2 mice, resulting in 3 data points for each peptide tested.
(§2) A direct ex vivo IFNγ ELISPOT assay was used as surrogate CTL readout. Basically, purified CD8+ cells were incubated with the individual HPV-specific HLA-restricted peptides (10 μg/mL) loaded on the appropriate antigen presenting cells (APC), in anti-mouse IFNγ antibody-coated ELISPOT plates. […] After 20 h incubation, IFNγ-producing cells were visualized by further developing the plates with biotinylated anti-mouse IFNγ antibody, streptavidin-HRP and AEC as substrate.
(§3) Some of the CTL epitopes included in the DNA constructs are analoged sequences of the wild type viral epitopes. For these particular epitopes, only the wild type sequences were used as in vitro stimulus for CTL readout.

[2] = test system: CD8+ spleen cells of HLA transgenic mice (HLA-A01/Kb, F1 HLA-A02/KbxBalb/c, HLA-A11/Kb, HLA-A24/Kb); test: Immunogenicity after HPV DNA construct immunization, direct ex vivo IFNγ ELISPOT; type: in vivo, mouse; settings: for ICCG6137 SFC/10^6 cells Delta: immunization with DNA construct ICCG 6137; for ICCG6137 SFC/10^6 cells Delta / ICCG6138 SFC/10^6 cells Delta: HLA transgenic mice (HLA-A01/A02/A11/A24), CD8+ cells restimulated with WT peptide 10 μg/mL, IFNγ ELISPOT; for ICCG6138 SFC/10^6 cells Delta: immunization with DNA construct ICCG 6138
Method: The immunogenicity of HPV HLA class I-restricted epitopes encoded in the DNA constructs was tested in the relevant HLA transgenic mice. […] To ensure an equal distribution of mice between different groups, a randomisation procedure based on body weight was performed. Female and male mice (age between 8 and 24 weeks) were ranked by body weight, extreme light or heavy animals were excluded. The remaining animals were grouped by sequentially assigning animals for the 2 experiments.
Mice were pre-treated with cardiotoxin (Sigma, C9759) on day −4 by bilateral intramuscular injection of 100 μl (2×50 μl) of a 10 μM cardiotoxin solution. Four days later, all mice were immunised with 100 μg HPV-DNA plasmid (diluted to 1 mg/ml in PBS) by bilateral injection of 50 μg in the m. tibialis anterior. […]
as §1, §2, §3

[3] = HLA-A24 epitopes, HLA-A24/Kb mice, median of mouse pools
[4] = HLA-A24 epitopes, HLA-A24/Kb mice, DNA construct ICCG6149, median of mouse pools
[5] = HLA-A24 epitopes, HLA-A24/Kb mice, DNA construct ICCG6150, median of mouse pools
[6] = HLA-A11 epitopes, HLA-A11/Kb mice, median
[7] = HLA-A11 epitopes, HLA-A11/Kb mice, DNA construct ICCG6149, median
[8] = HLA-A11 epitopes, HLA-A11/Kb mice, DNA construct ICCG6150, median
[9] = HLA-A01 epitopes, HLA-A01/Kb mice, median of mouse pools
[10] = HLA-A01 epitopes, HLA-A01/Kb mice, DNA construct ICCG6150, median of mouse pools
[11] = HLA-A02 epitopes, F1 HLA-A02/KbxBalb/c mice, median of mouse pools
[12] = HLA-A02 epitopes, F1 HLA-A02/KbxBalb/c mice, DNA construct ICCG6149, median of mouse pools
[13] = HLA-A02 epitopes, F1 HLA-A02/KbxBalb/c mice, DNA construct ICCG6150, median of mouse pools

Row | Molecule | Peptide Pool SFC/10^6 cells Delta [1] | ICCG6137 SFC/10^6 cells Delta [2] | ICCG6138 SFC/10^6 cells Delta [2] | also measured
1 | CC[C@H](C)[C@H](NC(=O)[C@H](Cc1ccc(O)cc1)NC(=O)[C@H](Cc1ccccc1)NC(=O)[C@@H](NC(=O)[C@H](CC(N)=O)NC(=O)[C@H](Cc1ccc(O)cc1)NC(=O)CN)[C@@H](C)O)C(=O)N[C@@H](CCC(=O)O)C(=O)N[C@@H](Cc1ccccc1)C(=O)O [compound 41] | – | – | – | Delta SFC/10^6 cells [1, 3]: 110 SFC/10^6 cells; Delta SFC/10^6 cells [2, 4]: 80 SFC/10^6 cells; Delta SFC/10^6 cells [2, 5]: 113 SFC/10^6 cells
2 | CSCC[C@H](NC(=O)[C@H](CC(C)C)NC(=O)[C@H](CCSC)NC(=O)[C@@H](NC(=O)[C@@H](N)CCSC)C(C)C)C(=O)N[C@@H](CC(C)C)C(=O)N[C@H](C(=O)N[C@@H](CCCNC(=N)N)C(=O)N[C@@H](Cc1ccccc1)C(=O)N[C@@H](CCCCN)C(=O)O)C(C)C [compound 55] | 510 SFC/10^6 cells | 10 SFC/10^6 cells | 1 SFC/10^6 cells | –
3 | CC[C@H](C)[C@H](N)C(=O)N[C@@H](CO)C(=O)N[C@@H](Cc1ccccc1)C(=O)N[C@@H](C)C(=O)NCC(=O)N[C@H](C(=O)N[C@H](C(=O)N[C@H](C(=O)N[C@@H](CCCCN)C(=O)O)[C@@H](C)O)C(C)C)[C@@H](C)CC [compound 57] | 1350 SFC/10^6 cells | 1 SFC/10^6 cells | 120 SFC/10^6 cells | –
4 | AATKYPLLK [compound 17] | – | – | – | Delta SFC/10^6 cells [1, 6]: 630 SFC/10^6 cells; Delta SFC/10^6 cells [2, 7]: 40 SFC/10^6 cells; Delta SFC/10^6 cells [2, 8]: 45 SFC/10^6 cells
5 | AFTDLTIVY [compound 47] | 133 SFC/10^6 cells | – | 55 SFC/10^6 cells | –
6 | ATCVSHRGLY [compound 25] | – | – | – | Delta SFC/10^6 cells [1, 9]: 2 SFC/10^6 cells; Delta SFC/10^6 cells [2, 10]: 3 SFC/10^6 cells
7 | ATLQDIVLH [compound 38] | – | – | – | Delta SFC/10^6 cells [1, 6]: 170 SFC/10^6 cells; Delta SFC/10^6 cells [2, 7]: 775 SFC/10^6 cells; Delta SFC/10^6 cells [2, 8]: 115 SFC/10^6 cells
8 | ATMCRHYKR [compound 14] | – | – | – | Delta SFC/10^6 cells [1, 6]: 60 SFC/10^6 cells; Delta SFC/10^6 cells [2, 7]: 1 SFC/10^6 cells; Delta SFC/10^6 cells [2, 8]: 6 SFC/10^6 cells
9 | ATTPIIHLK [compound 58] | 1810 SFC/10^6 cells | 920 SFC/10^6 cells | 1110 SFC/10^6 cells | –
10 | AVMCRHYKR [compound 78] | 31 SFC/10^6 cells | 100 SFC/10^6 cells | 20 SFC/10^6 cells | –
11 | CLYLHIQSL [compound 6] | – | – | – | Delta SFC/10^6 cells [1, 11]: 65 SFC/10^6 cells; Delta SFC/10^6 cells [2, 12]: 32 SFC/10^6 cells; Delta SFC/10^6 cells [2, 13]: 10 SFC/10^6 cells
12 | ELDPVDLLCY [compound 71] | 1 SFC/10^6 cells | – | 6 SFC/10^6 cells | –
13 | FIYIPLFVI [compound 52] | 50 SFC/10^6 cells | 3 SFC/10^6 cells | 1 SFC/10^6 cells | –
14 | FVYIPLFLI [compound 8] | – | – | – | Delta SFC/10^6 cells [1, 11]: 145 SFC/10^6 cells; Delta SFC/10^6 cells [2, 12]: 5 SFC/10^6 cells; Delta SFC/10^6 cells [2, 13]: 3 SFC/10^6 cells
15 | FYSKVSEFRW [compound 65] | 1 SFC/10^6 cells | 5 SFC/10^6 cells | 1 SFC/10^6 cells | –
16 | ILYAHIQCL [compound 27] | – | – | – | Delta SFC/10^6 cells [1, 11]: 655 SFC/10^6 cells; Delta SFC/10^6 cells [2, 12]: 358 SFC/10^6 cells; Delta SFC/10^6 cells [2, 13]: 613 SFC/10^6 cells
17 | KLLEKLLCI [compound 49] | 40 SFC/10^6 cells | 1 SFC/10^6 cells | 3 SFC/10^6 cells | –
18 | KLLSKLLCV [compound 7] | – | – | – | Delta SFC/10^6 cells [1, 11]: 95 SFC/10^6 cells; Delta SFC/10^6 cells [2, 12]: 62 SFC/10^6 cells; Delta SFC/10^6 cells [2, 13]: 15 SFC/10^6 cells
19 | KLTNKGICDL [compound 54] | 10 SFC/10^6 cells | 5 SFC/10^6 cells | 7 SFC/10^6 cells | –

Row | Molecule | Peptide Pool SFC/10^6 cells Delta [1] | ICCG6137 SFC/10^6 cells Delta [2] | ICCG6138 SFC/10^6 cells Delta [2] | also measured
20 | KQGAMLAVFK [compound 32] | – | – | – | Delta SFC/10^6 cells [1, 6]: 170 SFC/10^6 cells; Delta SFC/10^6 cells [2, 7]: 1 SFC/10^6 cells; Delta SFC/10^6 cells [2, 8]: 10 SFC/10^6 cells
21 | KSAIVTLTY [compound 4] | – | – | – | Delta SFC/10^6 cells [1, 9]: 68 SFC/10^6 cells; Delta SFC/10^6 cells [2, 10]: 1 SFC/10^6 cells
22 | KSLFGMSLMK [compound 15] | – | – | – | Delta SFC/10^6 cells [1, 6]: 620 SFC/10^6 cells; Delta SFC/10^6 cells [2, 7]: 1 SFC/10^6 cells; Delta SFC/10^6 cells [2, 8]: 1 SFC/10^6 cells
23 | KVSEFRWYRY [compound 59] | 20 SFC/10^6 cells | 15 SFC/10^6 cells | 20 SFC/10^6 cells | –
24 | LQDKILDHY [compound 67] | 2 SFC/10^6 cells | – | 3 SFC/10^6 cells | –
25 | LSQMVQWAY [compound 1] | 4 SFC/10^6 cells | – | 13 SFC/10^6 cells | Delta SFC/10^6 cells [1, 9]: 2 SFC/10^6 cells; Delta SFC/10^6 cells [2, 10]: 1 SFC/10^6 cells
26 | LSSALEIPY [compound 46] | 1 SFC/10^6 cells | – | 3 SFC/10^6 cells | –
27 | LYGVSFSEL [compound 18] | – | – | – | Delta SFC/10^6 cells [1, 3]: 685 SFC/10^6 cells; Delta SFC/10^6 cells [2, 4]: 1200 SFC/10^6 cells; Delta SFC/10^6 cells [2, 5]: 1120 SFC/10^6 cells
28 | NTELYNLLI [compound 70] | 4 SFC/10^6 cells | – | 5 SFC/10^6 cells | –
29 | NTGILTVTY [compound 68] | 2 SFC/10^6 cells | – | 6 SFC/10^6 cells | –
30 | PYLHSRLVVF [compound 61] | 1 SFC/10^6 cells | 17 SFC/10^6 cells | 1 SFC/10^6 cells | –
31 | QVDYYGLYY [compound 2] | – | – | – | Delta SFC/10^6 cells [1, 9]: 20 SFC/10^6 cells; Delta SFC/10^6 cells [2, 10]: 12 SFC/10^6 cells
32 | QVVPAYNISK [compound 35] | – | – | – | Delta SFC/10^6 cells [1, 6]: 10 SFC/10^6 cells; Delta SFC/10^6 cells [2, 7]: 1 SFC/10^6 cells; Delta SFC/10^6 cells [2, 8]: 1 SFC/10^6 cells
33 | RQMNMSQWIK [compound 79] | 435 SFC/10^6 cells | 10 SFC/10^6 cells | 10 SFC/10^6 cells | –
34 | SLVFLLCFSV [compound 74] | 1 SFC/10^6 cells | 1 SFC/10^6 cells | 1 SFC/10^6 cells | –
35 | STAAALYWYK [compound 13] | – | – | – | Delta SFC/10^6 cells [1, 6]: 950 SFC/10^6 cells; Delta SFC/10^6 cells [2, 7]: 710 SFC/10^6 cells; Delta SFC/10^6 cells [2, 8]: 1305 SFC/10^6 cells
36 | STAAALYWYR [compound 56] | 710 SFC/10^6 cells | 410 SFC/10^6 cells | 30 SFC/10^6 cells | –
37 | STDLRDHIDY [compound 3] | – | – | – | Delta SFC/10^6 cells [1, 9]: 1 SFC/10^6 cells; Delta SFC/10^6 cells [2, 10]: 1 SFC/10^6 cells
